Measurements reported in PubChem BioAssay AID1508623 (National Center for Advancing Translational Sciences (NCATS), 2021).
About 450 (0.94%) of roughly 48,000 compounds were called active. Not shown: some 19% with an inconclusive outcome. Calls come from the whole dose curve; as a rule, active = well fitted inhibition curve with a large enough effect; inconclusive = small, poorly fitted or top-dose-only effect; inactive = no such curve, though single readings can be large or run the other way. This is one part of the list.

Assay: Primary qHTS for Identification of Small Molecule Inhibitors of Huntingtin Promoter Activity; note: nearly all actives have a fitted effect of over 50% in size
Settings: HEK293 HTT promoter firefly luciferase reporter (activity 0% = vehicle and -100% = no light), 24 h; series mostly up to 57.5 µM; activity change, negative = inhibition: at the top concentration
Procedure, shortened: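 Firefly luciferase signal from promoter-reporter HEK293 cells was scaled between vehicle (0%) and zero RLU (-100%). Compounds were tested at final concentrations of up to 57.5 uM over 24 h at 37 degrees C. PTC124 at 50 uM final served as control inhibitor.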

Row | SMILES | activity change, negative = inhibition
1 | CCOc1ccc2nc(N3CCC(C(=O)Nc4c(C)cccc4C)CC3)sc2c1 | inactive: 10.5%
2 | Cc1ccc(S(=O)(=O)Nc2cc3c(cc2Cl)n(C)c(=O)c(=O)n3C)cc1 | inactive: -6.4%
3 | O=c1[nH]cc(F)c(=O)[nH]1 | inactive
4 | Cc1ccc(-n2ncc(C(=O)N3CCC(c4ccccc4)C3)c2C2CCN(C(=O)OC(C)(C)C)CC2)cc1 (stereo unspecified) | inactive: -10.7%
5 | CCCc1nn2c(C)c(-c3ccccc3)nc2s1 | inactive: 76.5%
6 | Cc1cc(C)c2oc(C(=O)Nc3ccc(S(=O)(=O)N(C)c4ccccc4)cc3)cc(=O)c2c1 | inactive: 19.8%
7 | O=c1c2c3c(sc2n(Cc2cc(=O)n4ccccc4n2)c(=O)n1-c1ccc(Cl)cc1)CCC3 | inactive: 13%
8 | COC(=O)CSc1nnc2n(-c3ccccc3)c(=O)c3c4c(sc3n12)COC(C(C)C)C4 (stereo unspecified) | inactive: -10.7%
9 | CS(=O)(=O)c1ccc([C@@H](O)[C@@H](CO)NC(=O)C(Cl)Cl)cc1 | inactive
10 | CCOc1ccccc1N1CC(c2nc3ccccc3n2CCOc2ccc(C(C)(C)C)cc2)CC1=O (stereo unspecified) | inactive: -5.32%
11 | Cc1ccccc1NC(=O)c1sc2nc(N3CCOCC3)c3c(c2c1N)CC(C)(C)OC3 | inactive: 62%
12 | CCOc1ccccc1N(C)C(=O)Cn1nc(Cc2cccnc2)c2ccccc2c1=O | inactive: -10.6%
13 | COc1cc(NC(=O)N2CCN(c3cc(-c4noc(C)n4)ccc3C)CC2)cc(OC)c1OC | inactive: -13.8%
14 | Cc1ccc(NC(=O)/C(C#N)=C\c2ccc(Cl)cc2Cl)cc1C | inactive: -22.2%
15 | COc1ccc2c(c1)c1c(c(=O)n(CCc3ccccc3)c(=O)n1Cc1ccc(Cl)cc1)n2C | inactive: -14.4%
16 | CCOc1ccccc1NC(=O)N1CCN(S(=O)(=O)c2ccc3c(ccn3C)c2)CC1 | inactive: -11.6%
17 | CC(C)c1ccccc1NC(=O)CSc1nnc(COc2ccccc2Cl)o1 | inactive: -36%
18 | Cc1ccc(-c2ccc(CCC(=O)O)n2-c2ccc(C(C)C)cc2)cc1 | inactive: 13.7%
19 | Nc1c(-c2nc(-c3ccccc3)no2)nnn1CC(=O)Nc1ccccc1 | inactive: 14.4%
20 | COc1ccccc1CNC(=O)Cn1ncc2c(C)n(Cc3ccccc3Cl)c(C)c2c1=O | inactive: -16.5%
21 | CCc1ccc(NC(=O)CC2C(=O)N(c3ccc(C)cc3)C(=O)N2C2CCCC2)cc1 (stereo unspecified) | inactive: 2.81%

Row | SMILES | activity change, negative = inhibition
22 | CC(C)(C)c1ccc(Oc2nc3ccccn3c(=O)c2/C=C(\C#N)c2nc3ccccc3s2)cc1 | inactive: -8.91%
23 | C[C@@H](c1ncncc1F)[C@](O)(Cn1cncn1)c1ccc(F)cc1F | inactive: -13.5%
24 | CN(C)c1oc(-c2ccc(COc3ccccc3)o2)nc1C#N | inactive: -32.9%
25 | COc1ccc(N2CCN(S(=O)(=O)CCNC(=O)c3cc(=O)c4ccccc4o3)CC2)cc1 | inactive: -21.5%
26 | Cc1cc(C)cc(NC(=O)CSc2nc(=O)[nH]c3c2CCC3)c1 | inactive: -28.4%
27 | COc1cc(NC(=O)Cn2ccn(-c3cc(C)cc(C)c3)c(=O)c2=O)cc(OC)c1 | inactive: -2.48%
28 | Cc1ccc(NC(=O)C(=O)NCC(c2ccc3c(c2)OCO3)N2CCN(C)CC2)c(C)c1 (stereo unspecified) | inactive: -19%
29 | Cc1cc(C)cc(NC(=O)CSc2nc3ncccc3[nH]2)c1 | inactive: -21%
30 | Cc1ccc(NC(=O)C(Cc2ccccc2)NS(=O)(=O)c2ccc3c(c2)CCC(=O)N3)cc1 (stereo unspecified) | inactive: -11.9%
31 | CS(=O)(=O)c1cccc(-c2nnc(NC(=O)c3ccc4c(c3)OCCO4)o2)c1 | inactive: -5.87%
32 | CCOC(=O)N1CCC(NC(=O)c2cnn(-c3ccc(C)cc3C)c2C2CCN(C(=O)OC(C)(C)C)CC2)CC1 | inactive: -20.3%
33 | CC(=O)Nc1cccc(Nc2nc3ccccc3n3c(C)nnc23)c1 | inactive: 81.2%
34 | O=C(CN1CCCN(Cc2ccc(F)cc2)S1(=O)=O)Nc1ccc2c(c1)OCCO2 | inactive: 1.72%
35 | CCCN(CCC)CCCNC(=O)Cn1ncc2c3ccccc3n(Cc3ccccc3F)c2c1=O | inactive: 43.4%
36 | CC(=O)c1nn(-c2ccc(OC(F)(F)F)cc2)nc1Nc1ccccc1 | inactive: 45.4%
37 | CCc1nn(CCCC(=O)NCc2ccc(C)cc2)c(=O)c2cc3occc3n12 | inactive: -13.6%
38 | CCOc1ccccc1N(C)C(=O)Cn1nc(Cc2ccncc2)c2ccccc2c1=O | inactive: -12.7%
39 | Cc1c(NC(=O)c2ccc(C(C)(C)C)cc2)cccc1-c1cn(C)c(=O)c(Nc2ccc(C(=O)N3CCOCC3)cc2)n1 | inactive: -16%
40 | COc1ccccc1C(=O)OCc1cc(=O)n2nc(-c3cccs3)sc2n1 | inactive: -0.637%
41 | CCOc1ccc(-c2cc(NC(=O)Nc3ccc(Cl)cc3)c(C(=O)OC)s2)cc1 | inactive: 54.4%
42 | CCOC(=O)c1c(NC(=O)CCCOc2ccc(C(C)(C)C)cc2)sc2c1CCCC2 | inactive: -7.97%

Row | SMILES | activity change, negative = inhibition
43 | COc1ccc(OC)c(NC(=O)c2cnc(N3CCCCC3)c3ccccc23)c1 | inactive: -27.4%
44 | Cc1cccc(C(c2sc3nc(-c4ccco4)nn3c2O)N2CCN(c3ccccc3F)CC2)c1 (stereo unspecified) | inactive: 9.27%
45 | CCOC(=O)C1CCCN(S(=O)(=O)c2cc(Br)cc3c2N(C(C)=O)CC3)C1 (stereo unspecified) | inactive: -11.8%
46 | CCc1ccc(NC(=O)[C@H](CSCc2ccccc2)N2Cc3ccccc3C2=O)cc1 | inactive: -19.6%
47 | O=C1COc2ccc(-c3cc(-c4ccccc4)c4c(n3)-c3ccccc3OC4)cc2N1 | inactive: -4.98%
48 | Cc1nn(-c2ccccc2)c2sc(C(=O)Nc3ccc(Br)cc3)cc12 | inactive: -6.52%
49 | CN1CCN(CCCN2c3ccccc3Sc3ccc(S(=O)(=O)N(C)C)cc32)CC1 | inactive: -13.2%
50 | CN(C)c1ccc(-c2nc(-c3cccs3)c(-c3cccs3)[nH]2)cc1 | inactive: -46.7%
51 | CCCn1c(SCC(O)c2ccccc2)nc2ccccc21 (stereo unspecified) | inactive: -3.46%
52 | COc1cccc(CNC(=O)CCCn2ncn3c(cc4occc43)c2=O)c1 | inactive: -19%
53 | Cc1ccc(-c2noc(-c3ccccc3NC(=O)C3CC(=O)N(c4ccc(C)cc4)C3)n2)cc1 (stereo unspecified) | inactive: 33%
54 | COc1cc2nc(Nc3cccc(C)c3)nc(N)c2cc1OC | inactive: -16.1%
55 | Cc1ccc(C(=O)NCC(c2ccco2)S(=O)(=O)c2cccs2)cc1C (stereo unspecified) | inactive: -18%
56 | CC1=C(C(=O)NCc2ccccc2C)C2(CCCCCC2)OC1=O | inactive: -1.74%
57 | COC(=O)c1sc(-c2ccccc2)cc1NC(=O)Nc1ccc(Cl)cc1 | inactive: -1.89%
58 | COc1ccc(NC(=O)CCS(=O)(=O)c2ccc3c(c2)oc(=O)n3C)cc1OC | inactive: 0.94%
59 | O=C(Oc1ccc(F)cc1)c1nc(SCc2ccc(F)cc2)ncc1Cl | inactive: 0.698%
60 | Cc1ccc(-c2nc(SCC(=O)NCC3CCCO3)c3c(=O)n(C)c(=O)n(C)c3n2)cc1 (stereo unspecified) | inactive: 2.51%
61 | CCOC(=O)CSC1=Nc2ccccc2C2=NC(CCC(=O)NCc3ccc(OC)cc3)C(=O)N12 (stereo unspecified) | inactive: -6.59%
